According to the supplement of paper PMC4967469:

Experiments:
Assay in all cases: Viability of human cancer cell lines after 72 h of drug (GDSC screen)
XMD14-99 = compound: COc1cc(N2CCN(C)CC2)ccc1Nc1nc(N)c(C(=O)c2c(Cl)cccc2Cl)s1 [XMD14-99]; settings: top dose 10.24 µM; top dose inferred
Procedure: (§1)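 Human cancer cell lines in 384-well plates, medium with 10% serum, drug for 72 h over a 256-fold dose range (nine 2-fold or five 4-fold steps up to the top dose). Adherent lines were fixed and stained with the nucleic acid dye Syto60, suspension lines read with resazurin; signal relative to control wells, capped at 0 and 100%. One two-parameter sigmoid per drug and line, fitted in a mixed model over all curves with the slope shared within a line.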

FH535 = compound: Cc1cc([N+](=O)[O-])ccc1NS(=O)(=O)c1cc(Cl)ccc1Cl [FH535]; settings: top dose 32 µM; top dose inferred
Procedure: as §1

A-443654 = compound: Cc1n[nH]c2ccc(-c3cncc(OC[C@@H](N)Cc4c[nH]c5ccccc45)c3)cc12 [A-443654]; settings: top dose 1.024 µM; top dose inferred
Procedure: as §1

Dasatinib = compound: Cc1nc(Nc2ncc(C(=O)Nc3c(C)cccc3Cl)s2)cc(N2CCN(CCO)CC2)n1 [Dasatinib]; settings: top dose 1.28 µM
Procedure: as §1

Sorafenib = compound: CNC(=O)c1cc(Oc2ccc(NC(=O)Nc3ccc(Cl)c(C(F)(F)F)c3)cc2)ccn1 [Sorafenib]; settings: top dose 4 µM
Procedure: as §1

AT-7519 = compound: O=C(NC1CCNCC1)c1n[nH]cc1NC(=O)c1c(Cl)cccc1Cl [AT-7519]; settings: top dose 10.24 µM; top dose inferred
Procedure: as §1

Cell Line | AUC (XMD14-99) | IC50 (XMD14-99) | AUC (FH535) | IC50 (FH535) | AUC (A-443654) | IC50 (A-443654) | AUC (Dasatinib) | IC50 (Dasatinib) | AUC (Sorafenib) | IC50 (Sorafenib) | AUC (AT-7519) | IC50 (AT-7519)
NCI-H1648 (lung adenocarcinoma, adherent) | 0.955 | > 10.2 µM | 0.519 | 2.26 µM | 0.638 | 158 nM | 0.311 | 22.8 nM | 0.932 | > 4 µM | 0.507 | 669 nM
NCI-H1694 (small cell lung carcinoma, suspension) | 0.986 | > 10.2 µM | 0.843 | 22.5 µM | 0.836 | 675 nM | 0.989 | > 1280 nM | 0.942 | > 4 µM | 0.796 | 4770 nM
NCI-H1836 (small cell lung carcinoma, suspension) | 0.988 | > 10.2 µM | 0.97 | > 32 µM | 0.874 | > 1020 nM | 0.921 | > 1280 nM | 0.961 | > 4 µM | 0.621 | 1430 nM
NCI-H2081 (small cell lung carcinoma, suspension) | 0.989 | > 10.2 µM | 0.933 | > 32 µM | 0.913 | > 1020 nM | 0.982 | > 1280 nM | 0.954 | > 4 µM | 0.774 | 4240 nM
NCI-H2141 (small cell lung carcinoma, suspension) | 0.99 | > 10.2 µM | 0.906 | > 32 µM | 0.826 | 599 nM | 0.967 | > 1280 nM | 0.961 | > 4 µM | 0.709 | 2450 nM
NCI-H2171 (small cell lung carcinoma, suspension) | 0.978 | > 10.2 µM | 0.932 | > 32 µM | 0.965 | > 1020 nM | 0.991 | > 1280 nM | 0.833 | 2.11 µM | 0.879 | 8080 nM
NCI-SNU-5 (stomach, suspension) | 0.989 | > 10.2 µM | 0.893 | > 32 µM | 0.893 | > 1020 nM | 0.989 | > 1280 nM | 0.966 | > 4 µM | 0.847 | 7690 nM
NKM-1 (acute myeloid leukaemia, suspension) | 0.842 | 7.52 µM | 0.708 | 7.86 µM | 0.74 | 318 nM | 0.831 | 843 nM | 0.177 | 0.0255 µM | 0.207 | 85.1 nM
NOMO-1 (acute myeloid leukaemia, suspension) | 0.971 | > 10.2 µM | 0.648 | 5.44 µM | 0.78 | 482 nM | 0.98 | > 1280 nM | 0.902 | > 4 µM | 0.333 | 205 nM
NU-DUL-1 (B-cell lymphoma, suspension) | 0.955 | > 10.2 µM | 0.671 | 5.37 µM | 0.619 | 127 nM | 0.276 | 21.6 nM | 0.888 | 2.99 µM | 0.252 | 149 nM
OCI-AML2 (acute myeloid leukaemia, suspension) | 0.986 | > 10.2 µM | 0.566 | 2.89 µM | 0.64 | 140 nM | 0.981 | > 1280 nM | 0.742 | 0.988 µM | 0.444 | 469 nM
OCI-AML5 (acute myeloid leukaemia, suspension) | 0.904 | > 10.2 µM | 0.734 | 8.63 µM | 0.671 | 183 nM | 0.97 | > 1280 nM | 0.706 | 0.899 µM | 0.497 | 629 nM
OCI-M1 (acute myeloid leukaemia, suspension) | 0.967 | > 10.2 µM | 0.609 | 3.69 µM | 0.902 | 768 nM | 0.989 | > 1280 nM | 0.903 | 3.03 µM | 0.473 | 549 nM
OPM-2 (myeloma, suspension) | 0.96 | > 10.2 µM | 0.88 | 22.9 µM | 0.765 | 311 nM | 0.941 | > 1280 nM | 0.93 | > 4 µM | 0.446 | 468 nM
P30-OHK (lymphoblastic leukaemia, suspension) | 0.902 | 9.38 µM | 0.788 | 11.6 µM | 0.972 | > 1020 nM | 0.99 | > 1280 nM | 0.95 | > 4 µM | 0.263 | 155 nM
P32-ISH (Burkitt lymphoma, suspension) | 0.973 | > 10.2 µM | 0.625 | 4.04 µM | 0.614 | 121 nM | 0.761 | 355 nM | 0.886 | 2.55 µM | 0.476 | 560 nM
PF-382 (T-cell lymphoblastic leukaemia, suspension) | 0.964 | > 10.2 µM | 0.729 | 8.11 µM | 0.855 | 659 nM | 0.612 | 156 nM | 0.927 | > 4 µM | 0.251 | 139 nM

The IC50 comes from the fitted curve, where viability falls to half of the control; fits outside the tested doses are given as limits. For AUC the same curve is integrated over the 256-fold range of doses and scaled to a fraction; values near 1 show little effect. For part of these data: An inferred top dose was calculated from the reported fits.
